Where a chain is given by its changes, count along the chain named. This is one part of the list.

B1: CUUGACU (DNA:RNA)
RNA: GGGAGACCGGAAUUCAGAUUGUCCCUUGACUUUAAAUCCCGUCGUAGCCACCA
DNA 1: CAATCTGAATTCCGGTCTCCC
DNA 2: TGGTGGCTACGACGGGATT
B2: AGAAGGG (DNA:RNA)
RNA: GGGAGACCGGAAUUCAGAUUGUCCAGAAGGGUUAAAUCCCGUCGUAGCCACCA
DNA 1: CAATCTGAATTCCGGTCTCCC
DNA 2: TGGTGGCTACGACGGGATT
B3: AGCCGCG (DNA:RNA)
RNA: B2 RNA with A27C, A28C, G30C
DNA 1: CAATCTGAATTCCGGTCTCCC
DNA 2: TGGTGGCTACGACGGGATT
B4: CUAUAAA (DNA:RNA)
RNA: B1 RNA with U27A, G28U, C30A, U31A
DNA 1: CAATCTGAATTCCGGTCTCCC
DNA 2: TGGTGGCTACGACGGGATT
B5: AAUCGGG (DNA:RNA)
RNA: B2 RNA with G26A, A27U, A28C
DNA 1: CAATCTGAATTCCGGTCTCCC
DNA 2: TGGTGGCTACGACGGGATT
B6: GUCUAUU (DNA:RNA)
RNA: B1 RNA with C25G, U27C, G28U, C30U
DNA 1: CAATCTGAATTCCGGTCTCCC
DNA 2: TGGTGGCTACGACGGGATT
B7: CCUUUUC (DNA:RNA)
RNA: B1 RNA with U26C, G28U, A29U, C30U, U31C
DNA 1: CAATCTGAATTCCGGTCTCCC
DNA 2: TGGTGGCTACGACGGGATT
B8: CGGGCAC (DNA:RNA)
RNA: B1 RNA with U26G, U27G, A29C, C30A, U31C
DNA 1: CAATCTGAATTCCGGTCTCCC
DNA 2: TGGTGGCTACGACGGGATT
B9: UUGACCC (DNA:RNA)
RNA: B1 RNA with C25U, U27G, G28A, A29C, U31C
DNA 1: CAATCTGAATTCCGGTCTCCC
DNA 2: TGGTGGCTACGACGGGATT

The target in the test is T1, RBFOX1 RRM (Homo sapiens, UniProt Q9NWB1 109-208).
T1 sequence: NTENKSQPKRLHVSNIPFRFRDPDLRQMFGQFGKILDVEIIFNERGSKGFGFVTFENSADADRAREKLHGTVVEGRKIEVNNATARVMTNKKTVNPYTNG
Briefly: EMSA; HiTS-Eq, 1 nM pool, 10 min; buffer printed only for the single-RNA assays: 10 mM Tris pH 7.5, 150 mM NaCl, 3.4 mM EDTA, 0.001% NP-40, 30 C. Particulars: tags: His6 N-terminal (pET28a); label: 5' 32P. Put shortly: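 Purified RbFox RRM (wild type or mutant) was equilibrated for 10 min in 50 µL with 1 nM of a 5′-radiolabelled pool of RNA with 7 randomized nucleotides, its flanks annealed to DNA oligonucleotides, across increasing protein concentrations. Free RNA was separated by 8% native PAGE, excised, reverse-transcribed, PCR-barcoded and sequenced on an Illumina HiSeq 2500. Relative association constants came from read-count changes of each variant against the control reaction, normalised to the cognate motif.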
For orientation: A gel shift assay detects complexes by their altered migration in electrophoresis.
B1: the binding signal is 0.0078 KA relative to UGCAUGU. The figure for B2 is 0.00618 KA relative to UGCAUGU; for B3 it is 0.00876 KA relative to UGCAUGU; for B4 it is 0.00444 KA relative to UGCAUGU. The figure for B5 is 0.00411 KA relative to UGCAUGU; for B6 it is 0.00628 KA relative to UGCAUGU. Turning to B7, the binding signal was 0.00728 KA relative to UGCAUGU. The figure for B8 is 0.0231 KA relative to UGCAUGU. Turning to B9, the binding signal was 0.00634 KA relative to UGCAUGU.

Values taken from publication PMC9911399, “Two distinct binding modes provide the RNA-binding protein RbFox with extraordinary sequence specificity”.
